This is one part of the list. These are further read-outs of the screen, such as a control signal, another cell line or another target. No call is given for them. Compounds called inactive in the main read-out are mostly missing here. The note in brackets gives the kind of curve behind each potency; many fits are weak.
Key:
Test in all cases: Confirmatory Screen for Target Class Profiling of Small Molecule Inhibitors of Methyltransferases (AID 1745852);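 also: inhibitor potency for blocking SAH production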
[1] = target: Histamine N-methyltransferase (Homo sapiens) (UniProt P50135); conditions: MTase-Glo luminescence, SAH detection, recombinant enzyme; measured here: HNMT inhibition potency
Sequence of UniProt P50135 (P50135 whole entry, looked up): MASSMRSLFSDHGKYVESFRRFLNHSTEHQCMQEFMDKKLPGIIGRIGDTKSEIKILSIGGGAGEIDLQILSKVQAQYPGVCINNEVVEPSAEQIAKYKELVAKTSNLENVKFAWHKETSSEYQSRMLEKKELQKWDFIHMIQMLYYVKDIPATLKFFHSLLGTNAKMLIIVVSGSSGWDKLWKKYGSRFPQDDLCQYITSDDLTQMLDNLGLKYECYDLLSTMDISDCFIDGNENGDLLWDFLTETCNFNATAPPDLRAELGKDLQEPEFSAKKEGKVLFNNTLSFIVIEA

[2] = target: Nicotinamide N-methyltransferase (Homo sapiens) (UniProt P40261); conditions: MTase-Glo luminescence, SAH detection, recombinant enzyme; measured here: NNMT inhibition potency
Sequence of UniProt P40261 (P40261 whole entry, looked up): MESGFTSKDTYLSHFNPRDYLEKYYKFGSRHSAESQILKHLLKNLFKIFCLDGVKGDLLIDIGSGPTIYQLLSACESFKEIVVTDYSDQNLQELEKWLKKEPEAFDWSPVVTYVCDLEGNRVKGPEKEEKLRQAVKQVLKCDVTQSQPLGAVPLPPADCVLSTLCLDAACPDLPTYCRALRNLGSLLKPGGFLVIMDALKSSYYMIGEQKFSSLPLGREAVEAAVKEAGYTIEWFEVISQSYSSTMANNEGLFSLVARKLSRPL

[3] = target: Phenylethanolamine N-methyltransferase (Homo sapiens) (UniProt P11086); conditions: MTase-Glo luminescence, SAH detection, recombinant enzyme; measured here: PNMT inhibition potency
Sequence of UniProt P11086 (P11086 whole entry, looked up): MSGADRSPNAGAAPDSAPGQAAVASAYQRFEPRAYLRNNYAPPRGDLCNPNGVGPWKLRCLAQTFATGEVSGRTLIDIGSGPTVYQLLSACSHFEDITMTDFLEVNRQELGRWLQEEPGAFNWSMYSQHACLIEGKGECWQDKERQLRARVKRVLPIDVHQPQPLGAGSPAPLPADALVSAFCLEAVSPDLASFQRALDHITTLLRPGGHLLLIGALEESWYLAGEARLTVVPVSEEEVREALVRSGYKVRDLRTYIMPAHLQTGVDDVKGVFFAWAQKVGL
Tags tell the direction and shape of the fitted curve.

Row | SMILES | IC50 [1] | IC50 [2] | IC50 [3]
1 | Cn1c(=O)n(C)c2cc(S(=O)(=O)N3CCN(C4CCCCC4)CC3)ccc21 | 5.41 µM [falling, full curve] | – | –
2 | Cc1noc2c(NC3CCN(C)CC3)cc(-c3cccs3)nc12 | 17.5 µM [falling, partial curve] | – | –
3 | Cc1cnc(CCNC(=O)c2cccs2)n1C1CCC1 | 19.2 µM [falling, partial curve] | – | –
4 | CC(CNC(=O)c1nnn2c1c(=O)[nH]c1cc(F)ccc12)c1ccccc1 (stereo unspecified) | 19.2 µM [falling, partial curve] | – | –
5 | CCN1CCN(c2nc3c(S(=O)(=O)c4ccc(C)cc4)nnn3c3ccccc23)CC1 | 13.6 µM [falling, partial curve] | – | –
6 | CN(CCc1ccc(Nc2ncc(-c3cccnc3)s2)cc1)Cc1ccccc1 | – | 17.1 µM [falling, partial curve] | –
7 | O=C(CCc1nnc2n(CCc3ccccc3)c(=O)c3ccccc3n12)N1CCN(C2CCCCC2)CC1 | – | 9.61 µM [falling, full curve] | –
8 | CN(C)c1nc(NC2CCC(NCCc3ccc(Br)cc3OC(F)(F)F)CC2)nc2ccccc12 (stereo unspecified) | 10.8 µM [falling, partial curve] | 6.07 µM [falling, full curve] | 21.5 µM [falling, partial curve]
9 | CC(C)c1cc2c(N3CCN(C4=NCC(C)(C)S4)CC3)ncnc2s1 | 21.5 µM [falling, partial curve] | 19.2 µM [falling, partial curve] | –
10 | NC(=O)c1cnc(NCCc2ccc(O)c(Cl)c2)nc1NCc1ccccc1 | 27.1 µM [falling, single point] | 0.108 µM [falling, full curve] | –
11 | CN(C)c1ccc(Nc2c3ccc(NC(=O)CCN4CCCC4)cc3nc3cc(NC(=O)CCN4CCCC4)ccc23)cc1 | 3.83 µM [falling, full curve] | 24.1 µM [falling, partial curve] | –
12 | COc1cc(/C=C2\CCCN([C@@H](C)c3ccc(F)cc3)C2=O)ccc1-n1cnc(C)c1 | 21.5 µM [falling, partial curve] | 27.1 µM [falling, partial curve, poor fit] | –
13 | Oc1cccc(Nc2ccnc3[nH]c4ccccc4c23)c1 | 9.61 µM [falling, partial curve] | 13.6 µM [falling, partial curve] | 19.2 µM [falling, partial curve, poor fit]
14 | COc1cc2nc(N3CCCC3)nc(NCCCCCN3CCCC3)c2cc1OC | 8.57 µM [falling, partial curve] | 24.1 µM [falling, single point] | –
15 | N#Cc1cnc2c(Cl)cc(NCc3cn(CCN4CCCCCC4)nn3)cc2c1Nc1ccc(F)c(Cl)c1 | 7.64 µM [falling, partial curve] | 21.5 µM [falling, partial curve, poor fit] | 21.5 µM [falling, partial curve]
16 | Cc1cc(-c2nc3ccncc3[nH]2)c(C)[nH]1 | 7.84 µM [falling, full curve] | 49.4 µM [falling, partial curve, poor fit] | –
17 | COc1ccc(-c2cc3nc4c(c(=O)n3[nH]2)CN(C(=O)CN(C)S(=O)(=O)c2cnc[nH]2)CC4)cc1 | 27.1 µM [falling, partial curve, poor fit] | 19.2 µM [falling, partial curve, poor fit] | –
18 | CN1CCC(N2CC[C@H](c3nc4ccccc4[nH]3)C2)CC1 | 44.1 µM [falling, partial curve] | 39.3 µM [falling, partial curve, poor fit] | –
19 | CN(C)c1nc(NC2CCC(NC(=O)c3ccc(F)c(F)c3)CC2)nc2ccccc12 (stereo unspecified) | 17.1 µM [falling, partial curve] | 24.1 µM [falling, partial curve, poor fit] | –
20 | COc1ccc(S(=O)(=O)NC[C@H]2Cn3c(-c4ccc(Cl)cc4)cnc3CO2)cc1 | 39.3 µM [falling, partial curve, poor fit] | 31.2 µM [falling, partial curve, poor fit] | –
